The results in this text go back to publication PMC9911399, “Two distinct binding modes provide the RNA-binding protein RbFox with extraordinary sequence specificity”.

Where a chain is given by its changes, count along the chain named. Some of the results follow.

The labels stand for the following.
T1: RBFOX1 RRM (Homo sapiens, UniProt Q9NWB1 109-208)
T1 sequence: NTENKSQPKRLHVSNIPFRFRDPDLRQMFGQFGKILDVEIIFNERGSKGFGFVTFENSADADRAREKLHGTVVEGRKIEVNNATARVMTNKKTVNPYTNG

B1: GUCGCCC (DNA:RNA)
RNA: GGGAGACCGGAAUUCAGAUUGUCCGUCGCCCUUAAAUCCCGUCGUAGCCACCA
DNA 1: CAATCTGAATTCCGGTCTCCC
DNA 2: TGGTGGCTACGACGGGATT
B2: AGUGAAU (DNA:RNA)
RNA: B1 RNA with G25A, U26G, C27U, C29A, C30A, C31U
DNA 1: CAATCTGAATTCCGGTCTCCC
DNA 2: TGGTGGCTACGACGGGATT
B3: CGGUAGU (DNA:RNA)
RNA: GGGAGACCGGAAUUCAGAUUGUCCCGGUAGUUUAAAUCCCGUCGUAGCCACCA
DNA 1: CAATCTGAATTCCGGTCTCCC
DNA 2: TGGTGGCTACGACGGGATT
B4: GAUAACC (DNA:RNA)
RNA: B1 RNA with U26A, C27U, G28A, C29A
DNA 1: CAATCTGAATTCCGGTCTCCC
DNA 2: TGGTGGCTACGACGGGATT
B5: UGUCCAU (DNA:RNA)
RNA: B3 RNA with C25U, G27U, U28C, A29C, G30A
DNA 1: CAATCTGAATTCCGGTCTCCC
DNA 2: TGGTGGCTACGACGGGATT
B6: GUGAACC (DNA:RNA)
RNA: B1 RNA with C27G, G28A, C29A
DNA 1: CAATCTGAATTCCGGTCTCCC
DNA 2: TGGTGGCTACGACGGGATT
B7: UGAAAAU (DNA:RNA)
RNA: B3 RNA with C25U, G27A, U28A, G30A
DNA 1: CAATCTGAATTCCGGTCTCCC
DNA 2: TGGTGGCTACGACGGGATT
B8: GAUUUUC (DNA:RNA)
RNA: B1 RNA with U26A, C27U, G28U, C29U, C30U
DNA 1: CAATCTGAATTCCGGTCTCCC
DNA 2: TGGTGGCTACGACGGGATT
B9: CUGGGUU (DNA:RNA)
RNA: B3 RNA with G26U, U28G, A29G, G30U
DNA 1: CAATCTGAATTCCGGTCTCCC
DNA 2: TGGTGGCTACGACGGGATT
B10: AGGAAUC (DNA:RNA)
RNA: B3 RNA with C25A, U28A, G30U, U31C
DNA 1: CAATCTGAATTCCGGTCTCCC
DNA 2: TGGTGGCTACGACGGGATT
B11: CAACUUA (DNA:RNA)
RNA: B3 RNA with G26A, G27A, U28C, A29U, G30U, U31A
DNA 1: CAATCTGAATTCCGGTCTCCC
DNA 2: TGGTGGCTACGACGGGATT
B12: AUGGGUU (DNA:RNA)
RNA: B3 RNA with C25A, G26U, U28G, A29G, G30U
DNA 1: CAATCTGAATTCCGGTCTCCC
DNA 2: TGGTGGCTACGACGGGATT
B13: GAGGUAU (DNA:RNA)
RNA: B3 RNA with C25G, G26A, U28G, A29U, G30A
DNA 1: CAATCTGAATTCCGGTCTCCC
DNA 2: TGGTGGCTACGACGGGATT
B14: UGGCCUG (DNA:RNA)
RNA: B3 RNA with C25U, U28C, A29C, G30U, U31G
DNA 1: CAATCTGAATTCCGGTCTCCC
DNA 2: TGGTGGCTACGACGGGATT
B15: AGGGAUC (DNA:RNA)
RNA: B3 RNA with C25A, U28G, G30U, U31C
DNA 1: CAATCTGAATTCCGGTCTCCC
DNA 2: TGGTGGCTACGACGGGATT
B16: UAGCGCG (DNA:RNA)
RNA: B3 RNA with C25U, G26A, U28C, A29G, G30C, U31G
DNA 1: CAATCTGAATTCCGGTCTCCC
DNA 2: TGGTGGCTACGACGGGATT
B17: CAUCAAC (DNA:RNA)
RNA: B3 RNA with G26A, G27U, U28C, G30A, U31C
DNA 1: CAATCTGAATTCCGGTCTCCC
DNA 2: TGGTGGCTACGACGGGATT
B18: AUCUUGU (DNA:RNA)
RNA: B3 RNA with C25A, G26U, G27C, A29U
DNA 1: CAATCTGAATTCCGGTCTCCC
DNA 2: TGGTGGCTACGACGGGATT
B19: CGCUGCG (DNA:RNA)
RNA: B3 RNA with G27C, A29G, G30C, U31G
DNA 1: CAATCTGAATTCCGGTCTCCC
DNA 2: TGGTGGCTACGACGGGATT
B20: ACCCAAC (DNA:RNA)
RNA: B1 RNA with G25A, U26C, G28C, C29A, C30A
DNA 1: CAATCTGAATTCCGGTCTCCC
DNA 2: TGGTGGCTACGACGGGATT
B21: ACGACCC (DNA:RNA)
RNA: B1 RNA with G25A, U26C, C27G, G28A
DNA 1: CAATCTGAATTCCGGTCTCCC
DNA 2: TGGTGGCTACGACGGGATT
B22: CCUUGCC (DNA:RNA)
RNA: B3 RNA with G26C, G27U, A29G, G30C, U31C
DNA 1: CAATCTGAATTCCGGTCTCCC
DNA 2: TGGTGGCTACGACGGGATT
B23: AUAGUUG (DNA:RNA)
RNA: B1 RNA with G25A, C27A, C29U, C30U, C31G
DNA 1: CAATCTGAATTCCGGTCTCCC
DNA 2: TGGTGGCTACGACGGGATT
B24: GAGUAUU (DNA:RNA)
RNA: B3 RNA with C25G, G26A, G30U
DNA 1: CAATCTGAATTCCGGTCTCCC
DNA 2: TGGTGGCTACGACGGGATT
B25: CUGUAUC (DNA:RNA)
RNA: B3 RNA with G26U, G30U, U31C
DNA 1: CAATCTGAATTCCGGTCTCCC
DNA 2: TGGTGGCTACGACGGGATT
B26: UUAGUAA (DNA:RNA)
RNA: B1 RNA with G25U, C27A, C29U, C30A, C31A
DNA 1: CAATCTGAATTCCGGTCTCCC
DNA 2: TGGTGGCTACGACGGGATT
B27: CACCACA (DNA:RNA)
RNA: B3 RNA with G26A, G27C, U28C, G30C, U31A
DNA 1: CAATCTGAATTCCGGTCTCCC
DNA 2: TGGTGGCTACGACGGGATT
B28: UGUUAUU (DNA:RNA)
RNA: B3 RNA with C25U, G27U, G30U
DNA 1: CAATCTGAATTCCGGTCTCCC
DNA 2: TGGTGGCTACGACGGGATT
B29: GAGUUAU (DNA:RNA)
RNA: B3 RNA with C25G, G26A, A29U, G30A
DNA 1: CAATCTGAATTCCGGTCTCCC
DNA 2: TGGTGGCTACGACGGGATT
B30: UGAUGAG (DNA:RNA)
RNA: B3 RNA with C25U, G27A, A29G, G30A, U31G
DNA 1: CAATCTGAATTCCGGTCTCCC
DNA 2: TGGTGGCTACGACGGGATT
B31: AUUUGAA (DNA:RNA)
RNA: B3 RNA with C25A, G26U, G27U, A29G, G30A, U31A
DNA 1: CAATCTGAATTCCGGTCTCCC
DNA 2: TGGTGGCTACGACGGGATT

For this test, the target named is T1, RBFOX1 RRM. Nature of the test: EMSA; HiTS-Eq, 1 nM pool, 10 min; buffer printed only for the single-RNA assays: 10 mM Tris pH 7.5, 150 mM NaCl, 3.4 mM EDTA, 0.001% NP-40, 30 C. Conditions: tags: His6 N-terminal (pET28a); label: 5' 32P. The method, boiled down:
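A pool of RNA with 7 randomized nucleotides, 5′-radiolabelled and with DNA-annealed flanks, was equilibrated at 1 nM for 10 min in 50 µL with purified RbFox RRM, wild type or mutant, across increasing protein concentrations. Free RNA was separated by 8% native PAGE, excised, reverse-transcribed, barcoded by PCR and sequenced. Relative association constants were obtained from read-count changes of each RNA species versus the control reaction and normalised to the cognate motif.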
Background: A gel shift assay detects complexes by their altered migration in electrophoresis.
Regarding B1, the binding signal is 0.00441 KA relative to UGCAUGU.
Regarding B2, the binding signal was 0.0106 KA relative to UGCAUGU.
For the molecule B3, the binding signal is 0.00977 KA relative to UGCAUGU.
The same measure for B4: 0.00487 KA relative to UGCAUGU.
The result for B5 reads 0.0104 KA relative to UGCAUGU; that for B6, 0.00945 KA relative to UGCAUGU; that for B7, 0.00884 KA relative to UGCAUGU.
Consider B8, for which the binding signal was 0.0122 KA relative to UGCAUGU.
As for B9, the binding signal is 0.0262 KA relative to UGCAUGU.
The result for B10 reads 0.0141 KA relative to UGCAUGU; that for B11, 0.000392 KA relative to UGCAUGU; that for B12, 0.021 KA relative to UGCAUGU.
For B13, the binding signal was 0.0145 KA relative to UGCAUGU.
For the molecule B14, the binding signal is 0.0426 KA relative to UGCAUGU.
The result for B15 reads 0.0234 KA relative to UGCAUGU; that for B16, 0.0194 KA relative to UGCAUGU; that for B17, 0.000553 KA relative to UGCAUGU.
Take B18: the binding signal is 0.00964 KA relative to UGCAUGU.
The same measure for B19: 0.0186 KA relative to UGCAUGU; for B20: 0.000159 KA relative to UGCAUGU.
The same measure for B21: 0.000155 KA relative to UGCAUGU; for B22: 0.0123 KA relative to UGCAUGU; for B23: 0.0115 KA relative to UGCAUGU.
The result for B24 reads 0.00773 KA relative to UGCAUGU.
As to B25, the binding signal was 0.00517 KA relative to UGCAUGU.
The result for B26 reads 0.00926 KA relative to UGCAUGU.
The result for B27 reads 0.00141 KA relative to UGCAUGU; that for B28, 0.00803 KA relative to UGCAUGU.
Turning to B29, the binding signal is 0.00747 KA relative to UGCAUGU.
The same measure for B30: 0.0266 KA relative to UGCAUGU; for B31: 0.012 KA relative to UGCAUGU.
